Reference: PMC3079584, “A Cytoplasmic Complex Mediates Specific mRNA Recognition and Localization in Yeast” (PLoS Biology, 2011)

Target: the molecule itself
Experiment: SEC; preparative size-exclusion chromatography, Superose 12 column, She2p variants alone; tetramerization judged from elution volume

B1: She2p (ΔC) (domain or fragment)
chain: not shown
notes: She2p, Saccharomyces cerevisiae, Gene ID 853728, the C-terminal six residues deleted; also called C-terminally truncated version of She2p
  binding result: binds
